In PMC6919601, “Identification of Plasmodium dipeptidyl aminopeptidase allosteric inhibitors by high throughput screening” (PLoS ONE, 2019):
In all, about 110,000 compounds went through this assay and about 230 (0.21%) showed an effect of 50% or more. This is one part of the list.
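Further: 30 min substrate incubation versus DMSO and 10 µM JCP410 controls.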

These compounds were tested against DPAP1 (Plasmodium falciparum, UniProt Q8IIJ9) (assay: primary screen, percent inhibition; read by cleavage of a fluorogenic dipeptide substrate; higher = more effect of the substance).
Sequence of DPAP1 (Q8IIJ9 whole entry, looked up): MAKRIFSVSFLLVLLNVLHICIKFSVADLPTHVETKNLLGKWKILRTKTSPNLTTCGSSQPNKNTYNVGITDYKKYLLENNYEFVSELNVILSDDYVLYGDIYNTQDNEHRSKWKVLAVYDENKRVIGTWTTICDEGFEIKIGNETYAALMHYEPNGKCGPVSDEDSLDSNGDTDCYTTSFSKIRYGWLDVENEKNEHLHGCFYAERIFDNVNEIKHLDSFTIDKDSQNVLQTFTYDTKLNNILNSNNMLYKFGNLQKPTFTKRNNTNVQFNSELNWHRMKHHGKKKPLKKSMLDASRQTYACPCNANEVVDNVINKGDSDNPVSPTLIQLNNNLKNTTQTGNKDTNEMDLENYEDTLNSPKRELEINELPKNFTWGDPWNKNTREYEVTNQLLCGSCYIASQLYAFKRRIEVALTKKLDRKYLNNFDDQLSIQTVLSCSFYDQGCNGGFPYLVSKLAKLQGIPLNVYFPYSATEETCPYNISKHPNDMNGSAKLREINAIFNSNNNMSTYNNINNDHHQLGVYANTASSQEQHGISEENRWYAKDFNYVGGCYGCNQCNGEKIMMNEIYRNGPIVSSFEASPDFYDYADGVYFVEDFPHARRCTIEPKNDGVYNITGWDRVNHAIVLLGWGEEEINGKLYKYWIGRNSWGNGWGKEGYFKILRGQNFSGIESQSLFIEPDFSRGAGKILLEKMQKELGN
Design: species or system P. falciparum D10 trophozoite lysates; single well
For COc1ccc(CN2CCSCC2)c(C)c1C, the “% Inhibition @ 10 uM” value was -1.86%.
For Cc1ccc2c(CC(=O)N(Cc3ccccc3Cl)C3CCS(=O)(=O)C3)coc2c1 (stereo not drawn), the “% Inhibition @ 10 uM” value was -2.4%.
With C=CCOC(=O)C1=C(C)NC(=O)NC1c1ccccc1Cl (stereo not drawn) the “% Inhibition @ 10 uM” value was 1.83%.
COc1ccc(-n2nc3c(c2NC(=O)/C=C\c2ccc4c(c2)OCO4)CS(=O)(=O)C3)cc1 was tested, and the “% Inhibition @ 10 uM” value was 18.3%.
For Cc1cc(C)c(S(=O)(=O)NCCc2ccncc2)c(C)c1, the “% Inhibition @ 10 uM” value was 3.48%.
COc1ccc(-n2nnc(-c3nsc(NC(=O)c4ccccc4C)n3)c2C)cc1 was tested, and the “% Inhibition @ 10 uM” value was -3.22%.
CN1CCN(Cc2c(O)ccc3ccccc23)CC1 was tested, and the “% Inhibition @ 10 uM” value was -3.92%.
With CCOC(=O)c1cnc2c(Cl)cccc2c1O the “% Inhibition @ 10 uM” value was -0.267%.
With CCC(NCCN(CC)CC)=C1C(=O)NC(=O)NC1=O the “% Inhibition @ 10 uM” value was 12.8%.
In the case of Cc1ccc(NC(=O)CN(C)S(=O)(=O)c2cc(Cl)ccc2Cl)c(C)c1, the “% Inhibition @ 10 uM” value is reported as -0.469%.
O=C(Cn1nc(C(F)(F)F)cc1C1CC1)Nc1ccccc1F was tested, and the “% Inhibition @ 10 uM” value was 1.17%.
CN1C(=O)C(=N)c2c3ccccc3c(O)c3c(N4CCCCC4)ccc1c23 was tested, and the “% Inhibition @ 10 uM” value was 0.51%.
With COc1ccc(CNCc2c(C(=O)O)c(C)n(Cc3ccccc3F)c2C)cc1 the “% Inhibition @ 10 uM” value was -9.31%.
For O=C1CC(c2cc(F)cc(F)c2)c2c(O)nc(SCc3ccccc3)nc2N1 (stereo not drawn), the “% Inhibition @ 10 uM” value was 2.25%.
In the case of CCOC(=O)c1c(NC(=O)c2ccc(Cl)cc2)sc2c1CC(C)(C)OC2, the “% Inhibition @ 10 uM” value is reported as -8.7%.
With CCN1C(=O)/C(=C/c2ccc(OC)c3ccccc23)C(=O)NC1=S the “% Inhibition @ 10 uM” value was 3.76%.
For COc1ccccc1CNC(=O)C1CCC(CNS(=O)(=O)c2ccccc2)CC1 (stereo not drawn), the “% Inhibition @ 10 uM” value was -8.34%.
With O=c1c(CN2CC=C(c3ccc(F)cc3)CC2)coc2ccccc12 the “% Inhibition @ 10 uM” value was -5.31%.
In the case of C=CCN1C(=O)C2(C(C#N)=C(N)Oc3n[nH]c(C)c32)c2ccccc21 (stereo not drawn), the “% Inhibition @ 10 uM” value is reported as 2.38%.
Cc1cccc(C(=O)NC2(C(F)(F)F)C(=O)Nc3c2c(=O)[nH]c(=O)n3-c2ccc(Cl)cc2)c1 (stereo not drawn) was tested, and the “% Inhibition @ 10 uM” value was -0.661%.
COc1cc(C(=O)Nc2ccc(Cl)nc2)cc(OC)c1OC was tested, and the “% Inhibition @ 10 uM” value was -6.17%.
With Cc1ccc2oc(C(=O)Nc3nonc3C)c(C)c2c1 the “% Inhibition @ 10 uM” value was 3.51%.
With CCN1CCC(C#N)(NC(=O)[C@H](C[C@H](C)c2ccccc2)NC(=O)c2ccc(-c3ccccc3Cl)nc2)CC1 the “% Inhibition @ 10 uM” value was -1.82%.
In the case of Cc1ccc2nc3c(cc(C#N)c(=O)n3CCc3ccccc3)c(=O)n2c1, the “% Inhibition @ 10 uM” value is reported as -0.551%.
With CC(c1ccccc1)N1C(=O)c2cccnc2C1=O (stereo not drawn) the “% Inhibition @ 10 uM” value was -7.15%.
CC(=O)N(CN1C(=O)c2ccc(Br)cc2C1=O)c1cccc(C(=O)O)c1 was tested, and the “% Inhibition @ 10 uM” value was -1.42%.
In the case of Cn1c2ccccc2c2cnn(CC(=O)NCCN3CCCCCC3)c(=O)c21, the “% Inhibition @ 10 uM” value is reported as -3.67%.
